# Source: the supplement of paper PMC8728848
# Some of the results follow.
# B1: FimD (Bordetella pertussis) (protein)
# chain: MPARVISFCGAALAVWAGLAVQPAMAVDPPVDCGRALGLHFWSSASLISDQTPDGTLIGKPVVGRSLLSKSCKVPDDIKEDLSDNHDGEPVDIVLELGSNYKIRPQSYGHPGIVVDLPFGSTEETGIAIYIDFGSSPMQKVGERQWLYPQKGEVLFDVLTINGDNAEVRYQAIKVGPLKRPRKLVLSQFPNLFTYKWVFMRGTSQERVLAQGTIDTDVATSTIDLKTCRYTSQTVSLPIIQRSALTGVGTTLGMTDFQMPFWCYGWPKVSVYMSATKTQTGVDGVALPATGQAAGMASGVGVQLINGKTQQPVKLGLQGKIALPEAQQTESATFSLPMKAQYYQTSTSTSAGKLSVTYAVTLNYD
# Legend:
# Assay in all cases: glycan array binding signal (z-score within array); higher = stronger binding
# Conditions in all cases: glycan notation: IUPAC condensed, linker removed
# Gal6S(b1-4)Glc6S = target: Gal6S(b1-4)Glc6S
# In short: (§1)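 The Consortium for Functional Glycomics database supplied 3228 glycan arrays, of which those lacking an available protein sequence were dropped. The binding signal, a within-array Z-score, was averaged across arrays of the same protein sequence and across linkers. Negative scores can be read as non-binding.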
# Gal6S(b1-4)GlcNAc = target: Gal6S(b1-4)GlcNAc
# In short: as §1
# Gal6S(b1-4)GlcNAc6S = target: Gal6S(b1-4)GlcNAc6S
# In short: as §1
# GalNAc(a1-3)Gal = target: GalNAc(a1-3)Gal
# In short: as §1
# GalNAc(a1-3)GalNAc = target: GalNAc(a1-3)GalNAc
# In short: as §1
# [1] = target: GalNAc(a1-3)GalNAc(b1-3)Gal(a1-4)Gal(b1-4)Glc
# In short: as §1
# [2] = target: GalNAc(a1-3)GalNAc(b1-3)Gal(a1-4)Gal(b1-4)GlcNAc
# In short: as §1
# GalNAc(b1-3)Gal = target: GalNAc(b1-3)Gal
# In short: as §1
# [3] = target: GalNAc(b1-3)Gal(a1-4)Gal(b1-4)GlcNAc
# In short: as §1
# [4] = target: GalNAc(b1-3)Gal(a1-4)Gal(b1-4)GlcNAc(b1-3)Gal(b1-4)Glc
# In short: as §1
# [5] = target: GalNAc(b1-3)Gal(a1-6)Gal(b1-4)Glc
# In short: as §1
# GalNAc(b1-3)GalNAc = target: GalNAc(b1-3)GalNAc
# In short: as §1
# GalNAc(b1-3)GlcNAc = target: GalNAc(b1-3)GlcNAc
# In short: as §1
# GalNAc(b1-4)Gal(b1-4)Glc = target: GalNAc(b1-4)Gal(b1-4)Glc
# In short: as §1
# GalNAc(b1-4)GlcNAc = target: GalNAc(b1-4)GlcNAc
# In short: as §1
# [6] = target: GalNAc(b1-4)GlcNAc(b1-2)Man
# In short: as §1
# [7] = target: GalNAc(b1-4)GlcNAc(b1-2)Man(a1-3)[GalNAc(b1-4)GlcNAc(b1-2)Man(a1-6)]Man(b1-4)GlcNAc(b1-4)GlcNAc
# In short: as §1
# [8] = target: GalNAc(b1-4)GlcNAc(b1-3)GalNAc(b1-4)GlcNAc
# In short: as §1
# GalNAc(b1-4)GlcNAc6S = target: GalNAc(b1-4)GlcNAc6S
# In short: as §1
# GalNAc(b1-6)GalNAc = target: GalNAc(b1-6)GalNAc
# In short: as §1
# GalNAc3S(b1-4)GlcNAc = target: GalNAc3S(b1-4)GlcNAc
# In short: as §1
# GalNAc3S(b1-4)GlcNAc3S = target: GalNAc3S(b1-4)GlcNAc3S
# In short: as §1
# [9] = target: GalNAc3S(b1-4)[Fuc(a1-3)]GlcNAc
# In short: as §1
# GalNAc4S6S(b1-4)GlcNAc = target: GalNAc4S6S(b1-4)GlcNAc
# In short: as §1
# GalNAc6S(b1-4)GlcNAc = target: GalNAc6S(b1-4)GlcNAc
# In short: as §1
# Glc(a1-4)Glc = target: Glc(a1-4)Glc
# In short: as §1
# [10] = target: Glc(a1-4)Glc(a1-4)Glc(a1-4)Glc
# In short: as §1
# Glc(a1-6)Glc(a1-6)Glc = target: Glc(a1-6)Glc(a1-6)Glc
# In short: as §1
# [11] = target: Glc(a1-6)Glc(a1-6)Glc(a1-6)Glc
# In short: as §1
# Glc(b1-4)Glc = target: Glc(b1-4)Glc
# In short: as §1
# Glc(b1-6)Glc = target: Glc(b1-6)Glc
# In short: as §1
# GlcA(b1-3)Gal = target: GlcA(b1-3)Gal
# In short: as §1
# GlcA(b1-3)GlcNAc = target: GlcA(b1-3)GlcNAc
# In short: as §1
# GlcA(b1-6)Gal = target: GlcA(b1-6)Gal
# In short: as §1
# [12] = target: GlcA3S(b1-3)Gal(b1-4)GlcNAc(b1-2)Man
# In short: as §1
# [13] = target: GlcA3S(b1-3)Gal(b1-4)GlcNAc(b1-3)Gal(b1-4)Glc
# In short: as §1
# [14] = target: GlcNAc(a1-3)Gal(b1-4)GlcNAc
# In short: as §1
binder,measurement,setting,value
B1,glycan array binding signal (z-score),Gal6S(b1-4)Glc6S,-0.03
same,glycan array binding signal (z-score),Gal6S(b1-4)GlcNAc,0.347
same,glycan array binding signal (z-score),Gal6S(b1-4)GlcNAc6S,0.074
same,glycan array binding signal (z-score),GalNAc(a1-3)Gal,-0.016
same,glycan array binding signal (z-score),GalNAc(a1-3)GalNAc,-0.392
same,glycan array binding signal (z-score),[1],-0.169
same,glycan array binding signal (z-score),[2],0.178
same,glycan array binding signal (z-score),GalNAc(b1-3)Gal,0.008
same,glycan array binding signal (z-score),[3],0.355
same,glycan array binding signal (z-score),[4],-0.24
same,glycan array binding signal (z-score),[5],0.203
same,glycan array binding signal (z-score),GalNAc(b1-3)GalNAc,-0.207
same,glycan array binding signal (z-score),GalNAc(b1-3)GlcNAc,-0.223
same,glycan array binding signal (z-score),GalNAc(b1-4)Gal(b1-4)Glc,0.029
same,glycan array binding signal (z-score),GalNAc(b1-4)GlcNAc,1.38
same,glycan array binding signal (z-score),[6],-0.434
same,glycan array binding signal (z-score),[7],0.05
same,glycan array binding signal (z-score),[8],-0.036
same,glycan array binding signal (z-score),GalNAc(b1-4)GlcNAc6S,-0.109
same,glycan array binding signal (z-score),GalNAc(b1-6)GalNAc,-0.278
same,glycan array binding signal (z-score),GalNAc3S(b1-4)GlcNAc,0.047
same,glycan array binding signal (z-score),GalNAc3S(b1-4)GlcNAc3S,-0.17
same,glycan array binding signal (z-score),[9],-0.119
same,glycan array binding signal (z-score),GalNAc4S6S(b1-4)GlcNAc,-0.402
same,glycan array binding signal (z-score),GalNAc6S(b1-4)GlcNAc,0.257
same,glycan array binding signal (z-score),Glc(a1-4)Glc,-0.548
same,glycan array binding signal (z-score),[10],-0.006
same,glycan array binding signal (z-score),Glc(a1-6)Glc(a1-6)Glc,-0.314
same,glycan array binding signal (z-score),[11],-0.049
same,glycan array binding signal (z-score),Glc(b1-4)Glc,0.068
same,glycan array binding signal (z-score),Glc(b1-6)Glc,-0.384
same,glycan array binding signal (z-score),GlcA(b1-3)Gal,-0.2
same,glycan array binding signal (z-score),GlcA(b1-3)GlcNAc,0.053
same,glycan array binding signal (z-score),GlcA(b1-6)Gal,0.112
same,glycan array binding signal (z-score),[12],-0.377
same,glycan array binding signal (z-score),[13],-0.183
same,glycan array binding signal (z-score),[14],-0.414
